Assay results published in PubChem BioAssay AID1745845 (National Center for Advancing Translational Sciences (NCATS), 2022).
Screen size: about 360,000 compounds; about 2,600 (0.72%) were called active. The shares of active, inactive and inconclusive entries below differ from those in the screen. Calls follow the shape of the dose curve; as a rule, active = well fitted inhibition curve with a large enough effect; inconclusive = small, poorly fitted or top-dose-only effect; inactive = no such curve, though single readings can be large or run the other way. Where the call is inconclusive, the potency comes from a doubtful curve fit.

test: Primary qHTS for Inhibitors of ATXN expression; conditions: HEK-293 ATXN2-luciferase reporter, luminescence, 24 h; activity change, negative = inhibition: at 57 µM (top of the series); also: nearly all actives have a fitted effect of over 55% in size
Procedure, shortened: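 qHTS (up to 57 uM final) was run with 24 h compound exposure of reporter cells at 37 °C. Each well was multiplexed: SteadyGlo luminescence measured ATXN2-luciferase expression after a fluorogenic Gly-Phe-AFC viability readout (25 uM final).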
% is scaled to controls: 0 for no effect and ±100 for the full control effect; potency is read from the fitted curve at half-maximal effect; tags tell the direction and shape of the fitted curve.

Potency, inconclusive:
CCNC(=O)NC(=O)COC(=O)CCCSc1nc2ccccc2s1 11.2 µM [inhibitor, partial curve]
Cc1[nH]c2ccccc2c1C(c1ccccc1)c1ccc(Cl)s1 (configuration not stated) 31.6 µM [inhibitor, single point]
Cc1nn(-c2ccccc2)c(Cl)c1C(=O)NNC(=O)c1ccccc1O 39.8 µM [inhibitor, single point]
O=C(c1ccccc1)N1CCN(c2n[nH]c(=O)[nH]c2=O)CC1 26.7 µM [inhibitor, partial curve, poor fit]
N#CCCn1cc(/C=C2\NC(=S)N(c3ccccc3)C2=O)c(-c2ccc(-c3ccccc3)cc2)n1 8.44 µM [inhibitor, partial curve]
Cc1ccc(S(=O)(=O)N2CCOCC2)cc1NC(=O)COc1ccc(C(=O)c2ccccc2)cc1 31.6 µM [inhibitor, single point]
Cc1nc(NC(=O)N2CCC[C@@H]2C(N)=O)sc1-c1csc(C(C)(C)C)n1 30.6 µM [inhibitor, single point]
CC(=O)Nc1ccc(-c2cc(C(=O)O)c3ccccc3n2)cc1 2 µM [inhibitor, partial curve, poor fit]
CCNC(=O)c1cc2c(c(-c3cccc(-c4ccccc4F)c3)n1)[C@H](CCO)N(C(=O)CC)C2 28.2 µM [inhibitor, partial curve, poor fit]
COc1ccc(-c2nn(-c3ccccc3)cc2C(=O)N/N=C/c2ccc([N+](=O)[O-])o2)cc1 7.94 µM [inhibitor, partial curve]
COc1cc(C(Nc2ccccn2)c2ccc3ccc(C)nc3c2O)cc(OC)c1O (configuration not stated) 39.8 µM [inhibitor, single point]
CCCCCCCCN1C(=O)[C@H](CC(=O)NCc2cccc(C(F)(F)F)c2)C[C@@]2(C(=O)OC)CCCCC=C12 39.8 µM [inhibitor, single point]
CCCCN(C=O)c1c(CC)nc2c(OCC3CCCCC3)cccn12 35.5 µM [inhibitor, single point]
O=c1[nH]c2ccccc2cc1CN(Cc1ccco1)S(=O)(=O)c1ccc(F)cc1 17.8 µM [inhibitor, single point]
Nc1nc(=O)n(C2OC(CO)C(O)C2O)cc1F (configuration not stated) 0.708 µM [inhibitor, full curve]
CC(=O)Nc1ccc(NC(=O)C(C)OC(=O)/C=C/c2cn(-c3ccccc3)nc2-c2cccnc2)cc1 (configuration not stated) 14.1 µM [inhibitor, partial curve, poor fit]
CC(NCc1ccc(-c2ccccc2)cc1)C(O)c1ccccc1 (configuration not stated) 39.8 µM [inhibitor, single point]
CCc1ccc(-n2nc3ccc(NC(=O)c4ccc5c(c4)OCO5)cc3n2)cc1 39.8 µM [inhibitor, single point]
COc1ccc(Cn2c(=O)[nH]c3cc(C(=O)NC4CCN(Cc5ccccc5)CC4)ccc32)cc1 11.2 µM [inhibitor, partial curve, poor fit]
N#CC(C(=O)Nc1cccc(Cl)c1)=C1Nc2ccccc2N1 31.6 µM [inhibitor, partial curve, poor fit]
Oc1c(C(c2ccccn2)N2CCC(Cc3ccccc3)CC2)cc(Cl)c2cccnc12 (configuration not stated) 37.7 µM [inhibitor, single point]
Cc1c(Br)c([N+](=O)[O-])nn1CC(=O)Nc1ccc(Cc2ccncc2)cc1 39.8 µM [inhibitor, partial curve, poor fit]
O=C(C1=C[C@H](C2CCCCC2)C[C@H](OCc2ccc(CO)cc2)O1)N1CCN(Cc2ccccc2)CC1 39.8 µM [inhibitor, single point]
O=C(NNC(=O)c1cc2cc(Br)ccc2oc1=O)c1ccc(O)cc1O 21.2 µM [inhibitor, single point]
CCc1ccc(/C=C/C(=O)C2C(=O)c3ccccc3C2=O)cc1 28.2 µM [inhibitor, single point]
O=C(Nc1ccc(C(F)(F)F)cc1)c1cc(S(=O)(=O)NC2CCCCC2)ccc1F 31.6 µM [inhibitor, single point]
COc1cc(OC)nc(-n2ncc(Br)c(Br)c2=O)n1 10.6 µM [inhibitor, partial curve, poor fit]
Cc1cccc2cc3c(N)c(C(=O)Nc4ccc(N5CCOCC5)cc4)sc3nc12 20 µM [inhibitor, partial curve]
CC(C)(C)c1ccc(C(=O)NCCOc2ccccc2)cc1 14.1 µM [inhibitor, single point]
COc1cccc(Cn2c(=O)n(CC3CCC(C(=O)N4CCCCC4)CC3)c(=O)c3sccc32)c1 (configuration not stated) 39.8 µM [inhibitor, single point]
CCN(CC)C(=S)SCC(=O)Nc1nc(-c2ccccc2)c(-c2ccccc2)o1 3.55 µM [inhibitor, partial curve, poor fit]
Cn1c2ccc(F)cc2c2nnc(NN)nc21 31.6 µM [inhibitor, single point]
COc1ccc(NC(=O)c2ccc(F)cc2)cc1S(=O)(=O)Nc1cc(C)ccc1Br 39.8 µM [inhibitor, single point]
COc1cc(C(=O)NCCCN(C)C)ccc1OCC(=O)Nc1cccc(C(F)(F)F)c1 15.8 µM [inhibitor, single point]
Fc1ccc(-[n+]2nc(Nc3ccccc3)sc2-c2c(Cl)cccc2Cl)cc1 22.4 µM [inhibitor, single point]
Cc1ccc(S(=O)(=O)N(C)C[C@H]2Oc3cc(C#CC4CCCC4)ccc3S(=O)(=O)N([C@H](C)CO)C[C@H]2C)cc1 17.8 µM [inhibitor, partial curve, poor fit]
Cc1ccc(C)c(C(=O)Cn2ncc(Cl)c(Cl)c2=O)c1 22.4 µM [inhibitor, single point]
CCN1/C(=C/c2cc[n+](C)cc2)C=Cc2cc(C)ccc21 10 µM [inhibitor, partial curve, poor fit]
CCCCCCCNC1=CC(=O)CC(c2ccccc2)C1 (configuration not stated) 39.8 µM [inhibitor, single point]
Cc1ccc(-n2ncc(C(=O)NCCCN3CCCCC3)c2C2CCN(C(=O)OC(C)(C)C)CC2)c(C)c1 15.8 µM [inhibitor, partial curve, poor fit]

Potency, inactive:
O=C(NCCN1CCOCC1)N1c2ccccc2Sc2ccccc21
Brc1ccc(CSc2nnc(-c3ccccn3)n2Cc2ccco2)cc1
CCc1[nH]nc2c1C(C(C)C)C(C#N)=C(N)O2 (configuration not stated)
N#Cc1ccc(-c2nc3ccc(Cl)cn3c2Cc2ccccc2C(F)(F)F)cc1
CC(NC(=O)c1ccc(Br)cc1)c1ccc2c(c1)CCCC2 (configuration not stated)
CC(C)Cn1c(N)c(C(=O)COC(=O)COc2cccc(C(F)(F)F)c2)c(=O)n(C)c1=O
Cc1cccc(N2CCN(C(=O)CN3C(=O)COc4ccc(S(=O)(=O)N5CCC(C)CC5)cc43)CC2C)c1 (configuration not stated)
CC1CCCN(S(=O)(=O)c2ccc(CN3C(=O)c4cccnc4C3=O)cc2)C1 (configuration not stated)
Brc1ccc(OCc2cn3ccccc3n2)cc1
CCOC(=O)c1c(S(=O)(=O)NCC(=O)Nc2ccc(C)c(N(C)C)c2)c(C)n(C)c1C
CN(C)/C=C1\C=C2C(=O)c3ccccc3N2C1=O
Cc1ccc(NC(=O)Cc2nc(COC(=O)Cc3cccc(C(F)(F)F)c3)cs2)cc1
CC(=O)[C@@]1(O)CC[C@H]2[C@@H]3C[C@H](C)C4=CC(=O)CC[C@]4(C)[C@H]3CC[C@@]21C
O=C(CC1Nc2cccc3cccc(c23)NC1=O)Nc1ccccc1 (configuration not stated)
CCN(CC)C(=O)Cn1cc(C(=O)C(=O)Nc2ccc3c(c2)OCCO3)c2ccccc21
COc1ccc(C#Cc2ccc3c(c2)O[C@H](CN(C)S(=O)(=O)c2ccccc2F)[C@H](C)CN([C@H](C)CO)S3(=O)=O)cc1
c1ccc2c(Nc3nc4c(s3)CCCC4)cccc2c1
CC1(C(=O)NS(=O)(=O)c2ccc(Cl)cc2)CCN1C(=O)c1ccco1 (configuration not stated)
Cc1ccc(C)c(N2CCN(C(=O)Nc3cn(CC(C)C)c(=O)c4ccccc34)CC2)c1

Potency, active:
CCOc1ccc(CCNC(=O)Cn2c(-c3cccs3)cc3cc(F)ccc32)cc1OCC 22.4 µM
Cc1cnc(NC(=O)CN2CCN(c3ccccn3)CC2)s1 8.91 µM
NC1=NC[C@H](Cc2ccccc2)N1CCCCC1CCCCC1 25.1 µM
CCCCCc1ccc(OCCCC[n+]2ccccc2)c(CCCCC)c1 14.1 µM
NNc1ncnc2scc(-c3ccc(Cl)cc3)c12 15.8 µM
CC(C)(C)C(=O)NC(=S)NNC(=O)c1sc2ccccc2c1Cl 17.8 µM
O=C1C=C(N2CCCCC2)c2ccccc2C1=O 29.9 µM

Activity change, negative = inhibition, inactive:
Cn1cccc1CC(=O)N/N=C/c1cc([N+](=O)[O-])ccc1Cl -23.5% [at 11.3 µM]
